Source: PubChem BioAssay (NCATS)
Inconclusive means that the source gave no clear call. Such entries were picked first, then a sample of the others. Where a call stands in place of a potency, no number is given. For some assays here: A potency beside an inconclusive call is a rough fit, not a confirmed value. Activity calls are given as the source filed them. Unless noted, calls come from the whole dose curve; as a rule, active = well fitted curve in the direction sought with a large enough effect; inconclusive = small, poorly fitted or top-dose-only effect, or another doubt; inactive = no such curve, though single readings can be large; an effect the other way counts as inactive or inconclusive.

Assays:
[1] = Cell Viability - LYMP2-017 (AID 972); settings: LYMP2-017 lymphoblastoid cell viability;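 note: potency is the fitted concentration of half-maximal effect; cells exposed to compound for 24 hours at 37 °C; nearly all actives have a fitted effect of over 55% in size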
How it was run: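 CellTiter-Glo luminescence (cellular ATP, 30 min RT) measured cytotoxicity after 24 hr compound treatment at 37 C. Cells were a human lymphoblastoid line, LYMP2-017, plated at 2500/well and incubated 5 hr first; concentration-response fitted with Hill equation for AC50.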

[2] = Cell Viability - LYMP2-026 (AID 989); settings: LYMP2-026 lymphoblastoid cell viability, qHTS; series mostly up to 92.2 µM; note: nearly all actives have a fitted effect of over 50% in size
How it was run: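 Cytotoxicity read as ATP-dependent luminescence (CellTiter-Glo, 30 min room temperature) after 24 h compound treatment at 37 C. LYMP2-026 lymphoblastoid line seeded at 2500 cells/well; AC50 derived by standard Hill equation.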

[3] = target: D(1A) dopamine receptor (Homo sapiens) (UniProt P21728); assay: HTS Assay for Allosteric Agonists of the Human D1 Dopamine Receptor: Primary Screen for Potentiators (AID 488982); settings: HEK293 T-REx D1 inducible cells, calcium flux, kinetic fluorescence; series mostly up to 8.37 µM; note: potency is the fitted concentration of half-maximal effect
Chain of UniProt P21728 (P21728 whole entry, looked up): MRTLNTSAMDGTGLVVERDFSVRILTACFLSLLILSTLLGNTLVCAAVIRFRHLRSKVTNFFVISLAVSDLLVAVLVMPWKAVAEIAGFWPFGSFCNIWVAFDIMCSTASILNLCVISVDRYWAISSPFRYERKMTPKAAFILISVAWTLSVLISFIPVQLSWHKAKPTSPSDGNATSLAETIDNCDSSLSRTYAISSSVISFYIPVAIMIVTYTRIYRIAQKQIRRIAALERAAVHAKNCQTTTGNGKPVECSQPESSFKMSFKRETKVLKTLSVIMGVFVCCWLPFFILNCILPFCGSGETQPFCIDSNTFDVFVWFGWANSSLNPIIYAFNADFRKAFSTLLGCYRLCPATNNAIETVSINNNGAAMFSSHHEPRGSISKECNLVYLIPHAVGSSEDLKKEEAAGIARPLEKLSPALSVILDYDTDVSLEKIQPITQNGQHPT
How it was run: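 Tetracycline-induced HEK293 T-REx cells force-coupled to calcium signalling were incubated overnight at 30 C and dye-loaded at room temperature. Calcium flux over 180 s after compound addition flagged agonists; a further 180 s read after EC20 dopamine flagged potentiators.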

[4] = target: Bile acid receptor (Homo sapiens) (UniProt Q96RI1); assay: qHTS assay for small molecule antagonists of farnesoid X receptor signaling (AID 588526; calls by dose curve); settings: HEK293T FXR-UAS-bla, beta-lactamase ratio, antagonist mode; activity change, negative = inhibition: at 76.7 µM (top of the series)
How it was run: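 Concentration-response titrations were fitted to the Hill equation for half-maximal inhibition and maximal response, with data normalised to 50 uM chenodeoxycholic acid and DMSO control wells. Cells: FXR-UAS-bla HEK293T, dialyzed FBS.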

[5] = qHTS for Activators of Parkin Expression: LOPAC Validation Assay (NLuc Reporter) (AID 720572; note: potency is the fitted concentration of half-maximal effect); settings: Parkin promoter NanoLuc reporter cells, luminescence
How it was run: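 Cells harboring the Parkin-promoter coincidence reporter were treated for 24 h at seven concentrations. NLuc output was measured sequentially after the FLuc channel and scaled between DMSO and positive control values.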

[6] = qHTS of pediatric cancer cell lines to identify multiple opportunities for drug repurposing: Confirmatory screen for NB1643 cells (AID 1347109); settings: NB1643 neuroblastoma cell viability; series mostly up to 45.9 µM; note: nearly all actives have a fitted effect of over 45% in size
How it was run: (§1)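 Cells (500-1,000/well) in growth media were settled 5 h at 37 degrees C, then given compounds for 48 h. Viability was read as CellTiter-Glo luminescence. Primary runs used MIPE at 11 points (0.78 nM-46 µM) and NPC at 8 points (0.59 nM-46 µM); follow-ups used 11 points.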

[7] = qHTS of pediatric cancer cell lines to identify multiple opportunities for drug repurposing: Confirmatory screen for SK-N-MC cells (AID 1347111); settings: SK-N-MC cell viability; series mostly up to 45.9 µM;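 note: cells exposed to compound for 48 h before the readout; nearly all actives have a fitted effect of over 70% in size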
How it was run: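 Metabolically active cells were quantified by ATP-dependent luminescence (CellTiter-Glo, 15 min at room temperature) following 48 h treatment. Cells had been plated at 500-1,000 per well and settled for 5 h beforehand.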

[8] = qHTS of pediatric cancer cell lines to identify multiple opportunities for drug repurposing: Confirmatory screen for LAN-5 cells (AID 1347113); settings: LAN-5 neuroblastoma cell viability; series mostly up to 45.9 µM; note: potency is the fitted concentration of half-maximal effect; nearly all actives have a fitted effect of over 65% in size
How it was run: as §1

[9] = qHTS of pediatric cancer cell lines to identify multiple opportunities for drug repurposing: Confirmatory screen for DAOY cells (AID 1347114); settings: DAOY medulloblastoma cells viability, cytotoxicity qHTS; series mostly up to 45.9 µM; note: potency is the fitted concentration of half-maximal effect; nearly all actives have a fitted effect of over 65% in size
How it was run: (§2)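 Viability measured as metabolically active cells via CellTiter-Glo luminescence following 48 hours of compound exposure, 11-point dilutions in confirmatory testing. 500-1,000 cells/well plated 5 hours before dosing; controls were DMSO and 2.3 µM bortezomib.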

[10] = qHTS of pediatric cancer cell lines to identify multiple opportunities for drug repurposing: Confirmatory screen for NB-EBc1 cells (AID 1347115); settings: NB-EBc1 neuroblastoma cells, viability (cytotoxicity); activity change, negative = cytotoxic: at 45.9 µM (top of the series);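 note: cells exposed to compound for 48 h before the viability read; nearly all actives have a fitted effect of over 45% in size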
How it was run: as §1

[11] = qHTS of pediatric cancer cell lines to identify multiple opportunities for drug repurposing: Confirmatory screen for SJ-GBM2 cells (AID 1347116); settings: SJ-GBM2 glioblastoma cells, viability; series mostly up to 45.9 µM; note: nearly all actives have a fitted effect of over 60% in size
How it was run: as §2

[12] = qHTS of pediatric cancer cell lines to identify multiple opportunities for drug repurposing: Confirmatory screen for TC32 cells (AID 1347118); settings: TC32 Ewing sarcoma cells viability qHTS; series mostly up to 45.9 µM;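 note: cells exposed to compound for 48 h before the read; nearly all actives have a fitted effect of over 65% in size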
How it was run: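 Luminescent ATP read-out (CellTiter-Glo) of metabolically active TC32 cells after 48 h exposure. Concentration-response curves came from 11-point (MIPE, 0.78 nM–46 µM) or 8-point (NPC, 0.59 nM–46 µM) primary titrations; follow-up used 11 points.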

[13] = qHTS of pediatric cancer cell lines to identify multiple opportunities for drug repurposing: Confirmatory screen for MG 63 (6-TG R) cells (AID 1347119); settings: MG-63 (6-TG resistant) osteosarcoma viability; series mostly up to 45.9 µM; note: nearly all actives have a fitted effect of over 55% in size
How it was run: as §1

[14] = qHTS of pediatric cancer cell lines to identify multiple opportunities for drug repurposing: Confirmatory screen for U-2 OS cells (AID 1347122); settings: U-2 OS osteosarcoma cell viability; series mostly up to 45.9 µM; note: nearly all actives have a fitted effect of over 65% in size
How it was run: as §1

[15] = qHTS of pediatric cancer cell lines to identify multiple opportunities for drug repurposing: Confirmatory screen for Rh41 cells (AID 1347123); settings: Rh41 rhabdomyosarcoma cells, viability/cytotoxicity qHTS; series mostly up to 45.9 µM;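 note: potency is the fitted concentration of half-maximal effect; 48 h compound exposure; nearly all actives have a fitted effect of over 60% in size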
How it was run: as §1

[16] = qHTS of pediatric cancer cell lines to identify multiple opportunities for drug repurposing: Confirmatory screen for RD cells (AID 1347124); settings: RD rhabdomyosarcoma cell viability; activity change, negative = cytotoxic: at 45.9 µM (top of the series)
How it was run: as §1

[17] = qHTS of pediatric cancer cell lines to identify multiple opportunities for drug repurposing: Confirmatory screen for Rh18 cells (AID 1347125); settings: Rh18 rhabdomyosarcoma cells, viability; series mostly up to 45.9 µM; note: nearly all actives have a fitted effect of over 55% in size
How it was run: as §1

[18] = qHTS of pediatric cancer cell lines to identify multiple opportunities for drug repurposing: Confirmatory screen for Rh30 cells (AID 1347126); settings: Rh30 rhabdomyosarcoma cell viability; series mostly up to 45.9 µM; note: potency is the fitted concentration of half-maximal effect; nearly all actives have a fitted effect of over 55% in size
How it was run: as §1

[19] = target: M-phase phosphoprotein 8 (Homo sapiens) (UniProt Q99549); assay: qHTS Validation Assay for Inhibitors for MPP8 Chromodomain Interactions with Methylated Histone Tails (AID 488949); settings: AlphaScreen MPP8 binding to H3K9me3 peptide; series mostly up to 57.1 µM
Chain of UniProt Q99549 (Q99549 whole entry, looked up): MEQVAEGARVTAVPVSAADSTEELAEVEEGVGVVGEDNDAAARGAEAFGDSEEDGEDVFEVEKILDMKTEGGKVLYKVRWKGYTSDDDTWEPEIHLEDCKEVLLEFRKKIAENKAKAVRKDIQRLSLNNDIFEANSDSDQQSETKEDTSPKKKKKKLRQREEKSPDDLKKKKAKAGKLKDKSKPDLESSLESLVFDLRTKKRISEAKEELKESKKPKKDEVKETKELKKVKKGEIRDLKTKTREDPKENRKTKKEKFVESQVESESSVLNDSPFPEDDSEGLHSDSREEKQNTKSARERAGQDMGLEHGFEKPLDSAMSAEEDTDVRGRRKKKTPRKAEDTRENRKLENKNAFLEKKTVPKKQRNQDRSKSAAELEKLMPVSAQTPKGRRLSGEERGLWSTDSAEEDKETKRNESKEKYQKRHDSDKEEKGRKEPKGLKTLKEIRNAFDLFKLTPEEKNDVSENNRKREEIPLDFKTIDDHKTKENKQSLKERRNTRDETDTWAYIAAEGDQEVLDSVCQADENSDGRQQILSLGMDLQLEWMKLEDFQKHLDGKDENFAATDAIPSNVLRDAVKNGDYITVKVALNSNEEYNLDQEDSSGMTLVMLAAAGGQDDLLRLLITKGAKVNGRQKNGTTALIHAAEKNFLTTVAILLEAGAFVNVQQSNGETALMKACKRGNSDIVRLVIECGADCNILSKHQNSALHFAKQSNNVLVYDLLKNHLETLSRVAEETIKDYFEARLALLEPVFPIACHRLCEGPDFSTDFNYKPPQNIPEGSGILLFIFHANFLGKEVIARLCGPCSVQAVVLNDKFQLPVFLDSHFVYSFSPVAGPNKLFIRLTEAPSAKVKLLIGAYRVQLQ
How it was run: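 Disruption of the preformed MPP8–trimethyl-H3K9 peptide complex (both 50 nM, 30 min, RT) is measured after 30 min compound exposure, using AlphaScreen proximity beads; aurintricarboxylic acid titration serves as plate control.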

[20] = target: Transient receptor potential cation channel subfamily V member 1 (Homo sapiens) (UniProt Q8NER1); assay: HTS Assay for Compounds that Act as Enhancers of the Vanilloid Receptor 1 (AID 488979); settings: TRPV1-expressing cells, enhancer of channel activity, stimulated with capsaicin at EC20; series mostly up to 41.7 µM; note: potency is the fitted concentration of half-maximal effect
Chain of UniProt Q8NER1 (Q8NER1 whole entry, looked up): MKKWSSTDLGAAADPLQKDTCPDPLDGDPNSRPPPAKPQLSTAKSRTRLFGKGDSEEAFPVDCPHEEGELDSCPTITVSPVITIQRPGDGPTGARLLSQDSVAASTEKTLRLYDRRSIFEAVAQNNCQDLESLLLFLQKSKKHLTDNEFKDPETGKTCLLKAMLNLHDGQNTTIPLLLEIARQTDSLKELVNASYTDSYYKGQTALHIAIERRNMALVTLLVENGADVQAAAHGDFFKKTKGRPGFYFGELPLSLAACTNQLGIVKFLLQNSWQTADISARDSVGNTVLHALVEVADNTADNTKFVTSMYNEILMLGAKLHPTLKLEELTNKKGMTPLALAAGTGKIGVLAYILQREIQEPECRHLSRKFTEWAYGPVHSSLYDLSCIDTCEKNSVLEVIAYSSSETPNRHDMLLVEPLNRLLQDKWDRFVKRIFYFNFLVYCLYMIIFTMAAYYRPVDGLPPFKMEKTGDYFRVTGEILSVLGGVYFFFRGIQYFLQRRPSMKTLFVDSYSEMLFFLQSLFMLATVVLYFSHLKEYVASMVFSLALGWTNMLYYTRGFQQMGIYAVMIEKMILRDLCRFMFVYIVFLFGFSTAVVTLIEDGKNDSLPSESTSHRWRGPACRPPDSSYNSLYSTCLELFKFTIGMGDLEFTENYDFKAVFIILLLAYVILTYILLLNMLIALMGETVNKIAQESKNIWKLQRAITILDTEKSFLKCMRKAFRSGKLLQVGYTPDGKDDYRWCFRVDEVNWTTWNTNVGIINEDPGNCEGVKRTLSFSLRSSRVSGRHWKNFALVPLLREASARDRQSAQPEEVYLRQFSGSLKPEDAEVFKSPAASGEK
How it was run: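 TRPV1-expressing cells loaded with Fluo-8 calcium dye; compounds added and calcium influx read kinetically for 3 min (agonist phase), then capsaicin at EC20 added and read 2 min more for enhancement. Fluorescence ex 480/em 520 nm.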
Tags give direction and shape of the fitted curve.

## CCCCC1C(=O)N(c2ccccc2)N(c2ccccc2)C1=O
[1]
  Potency: inconclusive: 79.4 µM [cytotoxic, single point]
[2]
  Potency: inactive
[3]
  Potency: inconclusive: 920 nM [activator, partial curve, poor fit]
[4]
  activity change, negative = inhibition: inconclusive: -38.1%
[5]
  Potency: inconclusive: 20.6 µM [activator, single point]

## CC(C)(C)CC(=O)OCC(=O)[C@@]1(O)CC[C@H]2[C@@H]3CCC4=CC(=O)C=C[C@]4(C)[C@H]3[C@@H](O)C[C@@]21C
[6]
  Potency: inactive
[7]
  Potency: inactive
[8]
  Potency: inconclusive: 11.7 µM [rising, single point]
[9]
  Potency: inconclusive: 26.1 µM [cytotoxic, single point]
[10]
  Potency: inactive
[11]
  Potency: inactive
[12]
  Potency: inactive
[13]
  Potency: inactive
[14]
  Potency: inactive
[15]
  Potency: inconclusive: 32.9 µM [cytotoxic, single point]
[16]
  Potency: inactive
[17]
  Potency: inactive
[18]
  Potency: inconclusive: 20.8 µM [cytotoxic, partial curve]

## CN(C)CC/C=C1\c2ccccc2COc2ccccc21
[19]
  Potency: inactive
[20]
  Potency: inconclusive: 12.6 µM [activator, single point]
